Results: the supplement of paper PMC7826260
The list shows a part of the results. The data describe in vitro nicking of single-stranded DNA by Rep domains (3 µM enzyme, 1 h, 37 °C); shown is the middle of each 90-letter strand. A value is the log2 ratio of uncut reads to the pool without enzyme; strong cutting gives strongly negative numbers. There is no active / inactive call. Counts are relative to all reads; where an enzyme cuts many sequences, the uncut ones exceed 0.

Tests used:
Test in all cases: uncleaved DNA left, log2 of reads against the no-enzyme library (log2 ratio); higher = less cleavage (more negative = more Rep cleavage of the k-mer); sequences stand for … in CTCGTCCG…ACCGGAGA
[1] = system: T1, Rep nickase domain of Muscovy duck circovirus
T1 sequence (protein, residues 1-111, tag omitted): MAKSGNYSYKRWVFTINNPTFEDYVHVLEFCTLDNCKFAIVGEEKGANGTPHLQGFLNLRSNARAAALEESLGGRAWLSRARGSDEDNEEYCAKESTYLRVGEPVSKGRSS
Description: (§1)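 A pool of 90-nt single-stranded DNAs with seven random bases just before the constant AC of the nick site (name = the seven bases) was cut by 3 µM recombinant His6-SUMO-tagged Rep nickase domain (300 nM DNA, 50 mM HEPES pH 8.0, 50 mM NaCl, 1 mM MnCl2, 1 h, 37 °C, three replicates). Uncut DNA was amplified and sequenced.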

[2] = system: T2, Rep nickase domain of banana bunchy top virus
T2 sequence (protein, residues 1-94, tag omitted): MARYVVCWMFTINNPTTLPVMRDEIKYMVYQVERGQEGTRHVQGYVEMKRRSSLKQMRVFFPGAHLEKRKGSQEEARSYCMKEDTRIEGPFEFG
Description: as §1

[3] = system: T3, Rep nickase domain of cabbage leaf curl virus
T3 sequence (protein, residues 1-116, tag omitted): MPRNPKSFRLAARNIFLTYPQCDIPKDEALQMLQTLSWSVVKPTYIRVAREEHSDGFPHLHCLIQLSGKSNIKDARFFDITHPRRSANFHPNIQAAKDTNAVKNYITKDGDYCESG
Description: as §1

[4] = system: T4, Rep nickase domain of chickpea chlorotic dwarf virus
T4 sequence (protein, residues 1-124, tag omitted): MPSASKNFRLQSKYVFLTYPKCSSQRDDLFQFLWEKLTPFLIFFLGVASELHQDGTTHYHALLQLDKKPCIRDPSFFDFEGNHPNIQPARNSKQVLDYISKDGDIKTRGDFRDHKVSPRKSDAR
Description: as §1

[5] = system: T5, Rep nickase domain of faba bean necrotic yellows virus
T5 sequence (protein, residues 1-98, tag omitted): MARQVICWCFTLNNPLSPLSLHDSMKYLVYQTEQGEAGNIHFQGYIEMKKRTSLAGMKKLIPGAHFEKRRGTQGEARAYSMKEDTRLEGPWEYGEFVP
Description: as §1

[6] = system: T6, Rep nickase domain of maize striate mosaic virus
T6 sequence (protein, residues 1-117, tag omitted): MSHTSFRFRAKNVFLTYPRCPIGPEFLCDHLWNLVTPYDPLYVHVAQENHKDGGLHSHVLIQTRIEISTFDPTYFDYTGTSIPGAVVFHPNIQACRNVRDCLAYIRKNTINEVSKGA
Description: as §1

[7] = system: T7, Rep nickase domain of porcine circovirus 2
T7 sequence (protein, residues 2-116, tag omitted): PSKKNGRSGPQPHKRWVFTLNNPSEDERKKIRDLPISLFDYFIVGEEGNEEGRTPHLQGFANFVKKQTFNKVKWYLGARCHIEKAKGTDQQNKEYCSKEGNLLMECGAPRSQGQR
Description: as §1

[8] = system: T8, Rep nickase domain of tomato golden mosaic virus
T8 sequence (protein, residues 1-124, tag omitted): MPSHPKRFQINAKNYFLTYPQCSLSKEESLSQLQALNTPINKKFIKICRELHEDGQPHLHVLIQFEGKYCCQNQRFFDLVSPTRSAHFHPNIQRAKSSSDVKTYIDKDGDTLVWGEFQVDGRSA
Description: as §1

[9] = system: T9, Rep nickase domain of tomato yellow leaf curl virus
T9 sequence (protein, residues 1-136, tag omitted): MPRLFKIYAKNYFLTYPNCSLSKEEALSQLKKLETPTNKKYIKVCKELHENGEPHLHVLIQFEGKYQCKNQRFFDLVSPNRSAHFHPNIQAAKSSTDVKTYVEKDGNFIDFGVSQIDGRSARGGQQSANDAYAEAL
Description: as §1

[10] = system: T10, Rep nickase domain of wheat dwarf virus
T10 sequence (protein, residues 1-137, tag omitted): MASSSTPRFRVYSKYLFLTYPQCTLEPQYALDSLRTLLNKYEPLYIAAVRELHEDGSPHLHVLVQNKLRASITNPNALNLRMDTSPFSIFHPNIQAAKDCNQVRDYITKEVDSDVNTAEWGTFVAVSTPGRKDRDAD
Description: as §1

| Sequence | uncleaved DNA left (log2) [1] | uncleaved DNA left (log2) [2] | uncleaved DNA left (log2) [3] | uncleaved DNA left (log2) [4] | uncleaved DNA left (log2) [5] | uncleaved DNA left (log2) [6] | uncleaved DNA left (log2) [7] | uncleaved DNA left (log2) [8] | uncleaved DNA left (log2) [9] | uncleaved DNA left (log2) [10] |
| --- | --- | --- | --- | --- | --- | --- | --- | --- | --- | --- |
| TACAGAG | -0.0289 | -0.00998 | -0.616 | -0.74 | 0.095 | -1.15 | 0.126 | 0.0127 | 0.0382 | -0.0653 |
| GCGTGGA | 0.0934 | 0.0664 | 0.157 | 0.533 | 0.0895 | 0.462 | 0.13 | 0.037 | 0.0338 | 0.135 |
| CTGTTAA | -0.0234 | 0.0342 | -0.153 | -0.384 | -0.0586 | -0.548 | 0.00979 | -0.103 | 0.0102 | -0.0762 |
| AAAAGTT | -0.222 | -0.165 | -3.57 | -2.86 | -0.107 | -1.73 | -2.73 | -0.9 | -0.163 | -2.29 |
| ACTTATT | -3.63 | -3.52 | -0.776 | -3.16 | -0.201 | -0.916 | -3.48 | -0.085 | -0.125 | -0.528 |
| CCACGCC | -0.0643 | -0.17 | -0.218 | -0.387 | -0.14 | -0.763 | -0.0861 | -0.109 | -0.133 | -0.28 |
| TTGAGCT | 0.0516 | 0.0318 | -0.187 | -1.19 | 0.0437 | -1.02 | -0.00687 | -0.125 | -0.0619 | -0.132 |
| GGGTGGG | 0.0926 | 0.0591 | 0.524 | 1.12 | 0.0619 | 1.19 | 0.276 | 0.0788 | -0.00669 | 0.0261 |
| TTGCCAA | -0.12 | -0.102 | -0.13 | 0.0303 | -0.0607 | -0.645 | -0.471 | -0.0889 | 0.0416 | 0.0493 |
| CTTTACA | -0.169 | -0.0433 | -0.562 | -2.44 | -0.191 | -0.808 | -0.256 | -0.159 | -0.221 | -0.089 |
| GTAAAAG | 0.0161 | -0.00794 | -0.477 | -0.518 | -0.0051 | -0.886 | 0.169 | 0.0119 | 0.0822 | -0.0102 |
| AAGACTA | 0.184 | 0.0358 | 0.115 | 0.242 | -0.00525 | 1.33 | 0.0126 | 0.0456 | -0.0213 | 0.0574 |
| ATGTTTA | -0.0665 | -0.207 | -0.319 | -1.81 | -0.119 | -0.61 | -0.547 | -0.000529 | -0.0913 | -0.195 |
| CGGTTAC | -0.0478 | 0.0263 | 0.128 | -0.326 | -0.00497 | 0.378 | 0.0184 | -0.13 | -0.121 | -0.121 |
| TGAAGAC | 0.0758 | 0.0308 | 0.174 | 0.484 | 0.06 | 0.32 | 0.145 | -0.00079 | 0.0338 | -0.0486 |
| CCCGAGA | 0.172 | 0.095 | 1.2 | 1.83 | -0.0407 | 2.25 | 0.239 | 0.11 | 0.184 | 0.337 |
| ACGTAAC | 0.0446 | -0.0806 | -0.383 | -1.08 | -0.126 | -0.684 | 0.0265 | 0.002 | -0.235 | -0.123 |
| CACCACC | -0.183 | 0.00567 | -0.0345 | -1.27 | 0.0105 | -0.573 | -0.198 | -0.103 | -0.0434 | 0.0569 |
| CGCCTGT | 0.019 | 0.00361 | 0.0319 | 0.54 | -0.0142 | 1.27 | 0.0255 | -0.152 | 0.0353 | -0.00611 |
| GGAGCGC | -0.0472 | 0.00934 | 0.0617 | 0.388 | 0.00245 | 0.211 | 0.112 | 0.0793 | 0.00494 | -0.0342 |
| GAAATGC | 0.0126 | 0.0291 | -0.35 | -0.332 | 0.0283 | -0.937 | 0.102 | -0.089 | 0.103 | 0.0203 |
| TCAATAC | -0.0109 | -0.0769 | 0.0481 | -0.638 | 0.0253 | -0.736 | -0.0766 | -0.00703 | -0.111 | -0.11 |
| CAATGAG | 0.0313 | -0.000467 | -0.737 | 0.199 | 0.0694 | -0.743 | 0.0814 | -0.151 | 0.13 | -0.189 |
| CTTAGCC | 0.185 | 0.0134 | -0.0164 | -0.212 | 0.0216 | -0.935 | -0.00122 | -0.0828 | 0.0795 | 0.0168 |
| GCAACTG | -0.0218 | 0.0301 | 0.0761 | 0.538 | -0.0341 | 1.32 | 0.00504 | -0.0212 | -0.0833 | 0.143 |
| ACCTTTG | 0.115 | 0.0999 | -0.666 | -0.301 | 0.291 | -1.09 | 0.106 | 0.196 | 0.151 | 0.117 |
| CTCGATG | -0.0667 | -0.0892 | -0.515 | -0.147 | -0.234 | -0.76 | 0.0106 | -0.148 | -0.0934 | -0.12 |
| TAAACCA | -0.124 | 0.0412 | -1.82 | -2.7 | 0.00242 | -0.764 | -0.515 | -0.187 | 0.0494 | -0.813 |
| GCTACAA | -0.0383 | 0.108 | 0.23 | 0.29 | -0.022 | 0.512 | 0.125 | 0.0831 | 0.0913 | 0.156 |
| TATTTGC | -0.0756 | 0.0237 | -0.695 | -0.109 | 0.135 | -1.08 | 0.0812 | -0.0204 | 0.101 | -0.0375 |
